Data: PubChem BioAssay (NCI)
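Exposure lasted 48 hours, with cells grown in 96-well plates and compounds tested at five concentrations. GI50 is the concentration that inhibits growth by half. TGI marks complete inhibition of growth.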

System: NCI-H322M lung
Test: NCI anticancer screen, dose series, 48 h

| Compound | GI50 | TGI |
| --- | --- | --- |
| COc1ccc(-c2oc3cc(O)cc(O)c3c(=O)c2OC)cc1O | 12100 nM | > 16500 nM |
| CCOP(=O)(OCC)OC[C@]12CC[C@@H](C)[C@H](C)C1C1=CC[C@@H]3[C@@]4(C)CCCNC(C)(C)[C@@H]4CC[C@@]3(C)[C@]1(C)CC2 (some centres undefined) | 1580 nM | 2960 nM |
